The results in this text go back to publication PMC7819943, “Rice protein-binding microarrays: a tool to detect cis-acting elements near promoter regions in rice”.

This is one part of the list.

In the assay the target is T1, OsWOX13 (Oryza sativa, UniProt Q5QMM3 1-267).
T1 sequence: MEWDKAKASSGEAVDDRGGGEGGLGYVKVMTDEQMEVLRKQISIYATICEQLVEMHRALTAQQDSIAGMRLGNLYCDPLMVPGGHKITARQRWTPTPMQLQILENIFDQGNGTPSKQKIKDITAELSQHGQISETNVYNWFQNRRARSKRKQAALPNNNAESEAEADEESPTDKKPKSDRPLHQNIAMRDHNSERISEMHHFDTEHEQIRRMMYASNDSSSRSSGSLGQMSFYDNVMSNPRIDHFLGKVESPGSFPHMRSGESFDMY
The assay can be described thus: protein-binding microarray (RPBM); PBS, 2% BSA, 51.3 ng/ul salmon testes DNA, 50 uM zinc acetate, 200 nM TF, 25 C, 1 h; high values mean tight binding. The following applies: protein: recombinant; tags: N-terminal polyhistidine and DsRed monomer fusion (pET32a); label: CyDye5-dUTP incorporated in the synthesized complementary strand; 3' TTTTT single-stranded linker to array surface; dsDNA, one strand shown. The method, boiled down:
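Binding signal is reported as fluorescence intensity per feature (arbitrary units) from an Axon 4000B scanner. Incubation used 200 nM of each Ni–NTA-purified, N-terminally polyhistidine- and DsRed-fused transcription factor from E. coli BL21-CodonPlus on a double-stranded custom Agilent array for 1 h at 25 °C, with 50 µM zinc acetate in the buffer, followed by washing.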
With “CATCAATCATGTAAAATAGATGTTACTAGATTTGTCATTACGGAGTCACCTAGTGCAG”, the binding signal is 43300 fluorescence intensity (a.u.).
“CTAAACACGTCCTATCATGTCACGTAGATAATATGACACGCGGAGTCACCTAGTGCAG”: the binding signal is 4110 fluorescence intensity (a.u.).
Regarding “TGCGTGTTTTATGATTACCTATGTTTCTGTTGTGTTTTAACGGAGTCACCTAGTGCAG”, the binding signal was 4120 fluorescence intensity (a.u.).
In the case of “TAAAACATTTAATTGTTAATCGTATCCCTACCCAACATTCCGGAGTCACCTAGTGCAG” it was 12300 fluorescence intensity (a.u.); in that of “GCCGAATTGATAGCTGTCTTGTATTTCTTATGCTGATGGGCGGAGTCACCTAGTGCAG”, 29800 fluorescence intensity (a.u.); in that of “ACCATGACTGCAAAATTTCCAAGTTTCTCGCTAGTTTAAACGGAGTCACCTAGTGCAG”, 5680 fluorescence intensity (a.u.).
Take “AGGCACAACATCCCCACATGATTGGTGCAGGATCGTAGCGCGGAGTCACCTAGTGCAG”: the binding signal is 3720 fluorescence intensity (a.u.).
For “CTAACGTTAGCACATAATTACTCTGTTCTATAATGTACTCCGGAGTCACCTAGTGCAG”, the binding signal is 6420 fluorescence intensity (a.u.).
In the case of “TAGAAATTAATTTCATATAGTAAACTAAAGTAGCTTTATTCGGAGTCACCTAGTGCAG” it was 17000 fluorescence intensity (a.u.); in that of “AAAACTTTATGACTGTAATTAGCTTTGAACCTGTTCAGAACGGAGTCACCTAGTGCAG”, 10300 fluorescence intensity (a.u.).
“CTCACTAATTATCTCTGAAGAAACATGACTTATTATCACTCGGAGTCACCTAGTGCAG”: the binding signal was 28500 fluorescence intensity (a.u.).
As for “GATAATTGACAACATCATATGTAGTATATTCTACCAAAACCGGAGTCACCTAGTGCAG”, the binding signal was 44500 fluorescence intensity (a.u.).
With “CCAAATTAGACATCACGCATTTATCGAGTGGTTCCCCTGGCGGAGTCACCTAGTGCAG”, the binding signal was 32100 fluorescence intensity (a.u.).
For “AAGGTTTAATTAAGGTGAAATTTACCGTGGGAATTTGTTTCGGAGTCACCTAGTGCAG”, the binding signal was 9500 fluorescence intensity (a.u.).
Regarding “AGGTGATTTTACAAAACCAAACTAAAATATAACACAAGCTCGGAGTCACCTAGTGCAG”, the binding signal is 3640 fluorescence intensity (a.u.).
With “TAATGATTGGGACAGGCTCTCTCAATGTATCGTCTAATTCCGGAGTCACCTAGTGCAG”, the binding signal is 47300 fluorescence intensity (a.u.).
Consider “CCTAAATTATTCTAAAATTAAAATGTTAATGGGGAAGTATCGGAGTCACCTAGTGCAG”, for which the binding signal was 19900 fluorescence intensity (a.u.).
On to “ATATATATATATATATATATATATATATATATGCGCAGAGCGGAGTCACCTAGTGCAG”, for which the binding signal was 26600 fluorescence intensity (a.u.).
For the sequence “ACAGCATCCAATTAACTTTAAAATGTACGGATGAATAACACGGAGTCACCTAGTGCAG”, the binding signal is 9440 fluorescence intensity (a.u.).
Turning to “TAAATTAACCAAAATTAGCCTCCTAATCCAGCTATAAGAACGGAGTCACCTAGTGCAG”, the binding signal is 10900 fluorescence intensity (a.u.).
Regarding “AAAATTATTTAAAATTTTAACATATTTTCATTGAATTTGGCGGAGTCACCTAGTGCAG”, the binding signal is 14300 fluorescence intensity (a.u.).
Take “AAACAGACAAACTACACTAATTGTGATGACTCTGGATTTTCGGAGTCACCTAGTGCAG”: the binding signal is 8340 fluorescence intensity (a.u.).
Regarding “ATCACACAATCAATAATACACTCGGCGGATTCATCCCCGGCGGAGTCACCTAGTGCAG”, the binding signal is 4720 fluorescence intensity (a.u.).
Regarding “GTTAGCTGATTGGTTTCTATTGGATTATATTGTTTTATTACGGAGTCACCTAGTGCAG”, the binding signal was 19000 fluorescence intensity (a.u.).
As to “AGGGTTGACAGGGGCATTTTCGCATTTTATGAAAATACTGCGGAGTCACCTAGTGCAG”, the binding signal is 5170 fluorescence intensity (a.u.).
As to “TGAAAATTTTGATACTAGATAGGATCGGTATCATTTTGGTCGGAGTCACCTAGTGCAG”, the binding signal is 5360 fluorescence intensity (a.u.).
For “TCTGATTATAGAAAAGTTGCAGCTGCGAGAAAATTCTCTTCGGAGTCACCTAGTGCAG” the value was 14100 fluorescence intensity (a.u.).
Take “AATAAAATTTAGAATGAAATTTAAATTCTAGAAGTTGTTACGGAGTCACCTAGTGCAG”: the binding signal was 8330 fluorescence intensity (a.u.).
Regarding “ATGATCAATTCTATCAATTTATAAAGTTATGGCCAATTTTCGGAGTCACCTAGTGCAG”, the binding signal is 11000 fluorescence intensity (a.u.).
In the case of “TTTTAGATTAGAATCTAAACCAGGCCTAACGTGGTAACGTCGGAGTCACCTAGTGCAG” it was 17100 fluorescence intensity (a.u.); in that of “TGTCCCAATCAACTGCTTGCATGGCAAATTCATTCAGGTTCGGAGTCACCTAGTGCAG”, 11900 fluorescence intensity (a.u.).
As for “TCCAATCAATCTGTAGTATCACCACCATTCACCAATCACCCGGAGTCACCTAGTGCAG”, the binding signal is 17500 fluorescence intensity (a.u.).
Turning to “TACTAATTTAATCCCCTTTGATCTGCTGACTGGTTTACTACGGAGTCACCTAGTGCAG”, the binding signal was 19700 fluorescence intensity (a.u.).
For the sequence “GCTAGTCAAATTTGCCTTACTAACTGCTCCGCGTAATTATCGGAGTCACCTAGTGCAG”, the binding signal is 7760 fluorescence intensity (a.u.).
For “TTTAAAGTTATTGATGGTTAAAGTTATAAAAGTTTAACCTCGGAGTCACCTAGTGCAG” the value was 3580 fluorescence intensity (a.u.); for “TGTGATTAATTGGTAATCTGCTTTTACAAGCTTCAATTGCCGGAGTCACCTAGTGCAG”, 60400 fluorescence intensity (a.u.).
As to “ATAATTAGACTTCTTGTTGCCTTCACCTATTTTAACACATCGGAGTCACCTAGTGCAG”, the binding signal is 13000 fluorescence intensity (a.u.).
In the case of “TGATAATTAGAAGCCAGTGGTTGAAATGGACAGTGTAAGGCGGAGTCACCTAGTGCAG” it was 28600 fluorescence intensity (a.u.); in that of “ATTTGACGAGGGCCACTTTAATTGCTCCAGGAGCGGAACTCGGAGTCACCTAGTGCAG”, 6060 fluorescence intensity (a.u.); in that of “CAGCAAAATTTGACCAAATTTAACACTGGAAATTCAACTACGGAGTCACCTAGTGCAG”, 6730 fluorescence intensity (a.u.).
As for “AGTGTGGCATGATAATTATGTGATGTCCAAACAAACACTGCGGAGTCACCTAGTGCAG”, the binding signal was 4690 fluorescence intensity (a.u.).
For the sequence “TCTAACTTTTAATAGATTATGCCTCTTGGGACAGTCTGAACGGAGTCACCTAGTGCAG”, the binding signal was 15300 fluorescence intensity (a.u.).
In the case of “CATGACTGCCATTTAGGCTGGAAGTGTAACAAGAAAGCATCGGAGTCACCTAGTGCAG” it was 18200 fluorescence intensity (a.u.); in that of “CAACTTCCAATCAATAAACACAACTTGAGCTTACAATACACGGAGTCACCTAGTGCAG”, 11100 fluorescence intensity (a.u.); in that of “GTTCAATAATCTTCAATCACTAGTTTGATAGTCGGTCCACCGGAGTCACCTAGTGCAG”, 35700 fluorescence intensity (a.u.).
With “ATAATATAAACTAGATTAGAGCCCATTATAATCAGTGTGACGGAGTCACCTAGTGCAG”, the binding signal is 5750 fluorescence intensity (a.u.).
As for “CTTCCAACTCGTGATTTGAAAACTTTCAACTCGAGATTTGCGGAGTCACCTAGTGCAG”, the binding signal was 3590 fluorescence intensity (a.u.).
In the case of “ACTATGATTTTAGGTGTAGGAAAATGCGCGCTGATTTTAGCGGAGTCACCTAGTGCAG” it was 4610 fluorescence intensity (a.u.); in that of “GTTATGATGGGGATAACGAGTTTCAAACACGAAGCACCTGCGGAGTCACCTAGTGCAG”, 4630 fluorescence intensity (a.u.).
For “GCCCAGTTTACCAATGTTGACGAGCCCAACAAGCCATAAACGGAGTCACCTAGTGCAG” the value was 3520 fluorescence intensity (a.u.); for “AGCCAGCCAATCATGTTCGTCTCCTGTTGGAACTTGTAACCGGAGTCACCTAGTGCAG”, 10500 fluorescence intensity (a.u.).
Consider “GAGTTGATTGGTGTAAGTAATAAACCTATTAGCCGCACAACGGAGTCACCTAGTGCAG”, for which the binding signal is 11100 fluorescence intensity (a.u.).
In the case of “GCAAAGAGATTAGACTGGACACGAAGGCCTCCCTCTCCTCCGGAGTCACCTAGTGCAG”, the binding signal was 5000 fluorescence intensity (a.u.).
As to “CATCCAGCATGCAGTTCATCAATCAGCAATGGCACCTCTGCGGAGTCACCTAGTGCAG”, the binding signal was 3280 fluorescence intensity (a.u.).
